About 2,200 (0.71%) of roughly 310,000 compounds showed an effect of 50% or more. The effect is printed as a negative number. This is one part of the list.
Target: human ether-à-go-go-related gene (hERG) potassium channel (human, UniProt Q12809)
Experiment: primary screen, population patch clamp on CHO cells stably expressing hERG

Chain of human ether-à-go-go-related gene (hERG) potassium channel (Q12809 whole entry, looked up): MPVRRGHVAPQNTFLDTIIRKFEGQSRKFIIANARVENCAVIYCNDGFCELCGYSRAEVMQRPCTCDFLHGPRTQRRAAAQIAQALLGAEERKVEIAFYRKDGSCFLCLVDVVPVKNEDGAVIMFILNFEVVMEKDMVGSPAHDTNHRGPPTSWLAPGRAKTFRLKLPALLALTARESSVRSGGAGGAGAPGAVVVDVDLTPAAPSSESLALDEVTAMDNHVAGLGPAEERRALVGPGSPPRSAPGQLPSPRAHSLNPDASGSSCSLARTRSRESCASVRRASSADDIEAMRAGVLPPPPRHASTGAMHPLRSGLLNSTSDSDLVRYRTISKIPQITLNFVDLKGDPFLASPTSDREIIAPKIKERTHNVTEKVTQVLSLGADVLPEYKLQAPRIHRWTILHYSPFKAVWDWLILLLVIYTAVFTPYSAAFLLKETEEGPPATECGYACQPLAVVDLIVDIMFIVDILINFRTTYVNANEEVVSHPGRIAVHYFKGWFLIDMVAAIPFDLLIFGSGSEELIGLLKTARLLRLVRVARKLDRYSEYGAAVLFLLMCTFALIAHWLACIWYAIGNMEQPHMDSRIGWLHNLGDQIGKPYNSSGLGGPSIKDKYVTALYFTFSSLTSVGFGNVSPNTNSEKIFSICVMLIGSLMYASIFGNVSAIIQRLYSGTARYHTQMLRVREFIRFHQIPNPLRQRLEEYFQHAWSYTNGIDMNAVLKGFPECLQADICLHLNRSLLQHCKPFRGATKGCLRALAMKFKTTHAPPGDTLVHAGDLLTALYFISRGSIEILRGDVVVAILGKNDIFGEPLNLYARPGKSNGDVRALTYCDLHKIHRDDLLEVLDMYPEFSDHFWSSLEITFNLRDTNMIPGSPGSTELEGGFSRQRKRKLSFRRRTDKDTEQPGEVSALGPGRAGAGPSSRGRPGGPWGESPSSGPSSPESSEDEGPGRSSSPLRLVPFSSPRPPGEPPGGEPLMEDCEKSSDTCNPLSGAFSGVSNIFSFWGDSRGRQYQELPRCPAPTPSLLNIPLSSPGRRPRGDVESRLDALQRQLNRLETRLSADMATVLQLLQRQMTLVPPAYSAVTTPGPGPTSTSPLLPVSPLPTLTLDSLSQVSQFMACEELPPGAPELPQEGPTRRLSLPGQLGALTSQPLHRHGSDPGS

SMILES | hERG current change (%, negative = inhibition) at 1uM [%]
O=C(Cn1c(=O)c2cccn2c2ccccc21)NCCCN1CCCCC1 | 19.4
Cc1ccc(NC(=S)N2CCC(NC(=O)c3ccc(F)cc3)CC2)cc1C | 11.1
CN1C(=O)C2(c3ccccc31)C1CCCC=C1C(C#N)=C(N)C2(C#N)C#N (stereo not drawn) | 9.97
Cn1ncc(Cl)c1C(=O)NCc1ccc2c(c1)OCO2 | 16.3
COc1ccc(-c2cc(C(N)=O)nc(N3CCCCCC3)n2)cc1 | 14.1
COc1cc(C(=O)Nc2c(C(=O)O)[nH]c3ccccc23)cc(OC)c1OC | 10.9
CCNc1nc(C)c2cc(Br)c(=O)n(CC)c2n1 | 20.2
CCN(CC(=O)Nc1c(F)cccc1F)C(=O)CN1C(=O)NC2(CCCC2)C1=O | 21
O=C(CCn1c(=S)[nH]c2ccccc2c1=O)N1CCOCC1 | 8.04
CCOc1ccccc1C(=O)NN1C(=O)C2CCCCC2C1=O (stereo not drawn) | 6.62
COc1ccc(/C=C/C(=O)NC(=S)Nc2ccc(C(=O)O)cc2)cc1 | 14.8
CCN1CCN(c2ncnc3ccc(Br)cc23)CC1 | 4.89
N#CCCN/N=C(\Cc1nc2ccccc2[nH]1)c1ccccc1 | 13.6
CCOC(=O)N1CCC(Nc2c(NCCCN(CC)Cc3ccccc3)c(=O)c2=O)CC1 | 11.4
O=C(c1cc(=O)[nH]c2ccccc12)N1CCc2ccccc2C1 | 8.57
O=C(COC(=O)CCNS(=O)(=O)c1cccc(C(F)(F)F)c1)NC(=O)NC1CCCCC1 | 4
CCOC(=O)N1CCC(NC(=O)c2cc3sccc3n2CC)CC1 | 12.3
CCN1CCN(CCCNC(=O)CCc2nc(-c3ccc(OC)cc3)no2)CC1 | 6.54
Cc1ccccc1CS(=O)(=O)CCC(=O)NCc1ccc(F)cc1Cl | -0.181
CC(C)=CCc1c(O)ccc2c1OC(c1ccc(O)c(O)c1)CC2=O (stereo not drawn) | 11
COc1ccc(CCNC(=O)COC(=O)c2cnccn2)cc1 | 7.35
COc1cccc(CC(NC(C)=O)C(=O)NC2CCN(S(=O)(=O)c3ccc(NC(C)=O)cc3)CC2)c1OC (stereo not drawn) | 9.39
CCCC(=O)Oc1ccc(C2NC(=O)c3ccccc3O2)cc1 (stereo not drawn) | 12.9

SMILES | hERG current change (%, negative = inhibition) at 1uM [%]
Cc1csc(Nc2ccccc2)[n+]1C.[Br-] | 13.9
CCOC(=O)c1c(C)[nH]c(C)c1S(=O)(=O)NCC1CCN(Cc2ccccc2F)CC1 | 8.12
O=C(CSCc1ccccc1)NC1CCSC1=O (stereo not drawn) | 2.98
CCOC(=O)N1CCC(NC(=O)CCc2nc(-c3ccccc3F)no2)CC1 | 10.8
CCOC(C(=O)OCCCN(CC)CC)(c1ccccc1)c1ccccc1.Cl | 4.72
Nc1nc(SCC(=O)N2N=C(c3ccc(Cl)cc3)CC2c2ccco2)n[nH]1 (stereo not drawn) | 6.73
COCCNc1nc(-n2nc(C)cc2C)nc2sc3c(c12)CCCC3 | 1.29
Clc1ccc(OCc2nnc(SCc3nnc(-c4ccccc4)o3)o2)c(Cl)c1 | 3.63
Cn1nc(C(=O)NCc2ccccc2)c2ccccc2c1=O | 10.7
Cc1cc(N2CCN(C)CC2)nc2ccc(NC(=S)N3CCOCC3)cc12 | 5.36
Cc1ccccc1-n1c(O)c(C=Nc2ccc3c(c2)OCO3)c(=O)[nH]c1=O | 10.3
CC(=O)c1ccc(N(C)C)cc1 | 13.2
O=C(NCCc1ccccn1)c1cccc(S(=O)(=O)N2CCc3ccccc32)c1 | 8.51
CC1CCCCN1C(=O)Cn1c(=O)n(C2CCCCC2)c(=O)c2ccccc21 (stereo not drawn) | 2.61
S=C(NCc1ccccc1)NNc1ccccc1 | 10.4
COC(=O)Oc1nsnc1N1CCOCC1 | 14.4
CCCCc1cc(=O)oc2cc(C)cc(OCC(=O)Nc3cccnc3)c12 | 12.7
O=C(O)c1cc([N+](=O)[O-])c(Nc2cccc3ccccc23)c([N+](=O)[O-])c1 | 5.39
COc1ccc(/C=C2\Oc3cc(OCC(=O)N4CC(O)C[C@H]4C(=O)O)ccc3C2=O)cc1OC (stereo partly drawn) | 16.3
O=C(COC(=O)Cc1ccc(F)cc1)NC(=O)c1ccccc1 | 18.2
COc1ccc(OC)c(N(CC(=O)NCCSC2CCCCC2)S(=O)(=O)c2ccccc2)c1 | 12.2
C/C=C(\C)C(=O)N[C@@H](c1ccccc1)[C@@H](O)C(=O)O[C@H]1C[C@@]2(O)[C@@H](OC(=O)c3ccccc3)C3[C@](C)(C(=O)[C@H](OC(C)=O)C(=C1C)C2(C)C)[C@@H](O)C[C@H]1OC[C@@]31OC(C)=O (stereo partly drawn) | 1.79

Source: PMC4336329 (PLoS ONE, 2015)
